Not every detail of the peptide structures is certain; ends, links or a residue may be inferred. Numbered stars: 1 amine (or outer) side, 2 acyl side, 3 side chain; on linkers, the order of the positions; unused ones are H or OH. Square brackets hold non-standard residues; d marks the D form. Peptide text beside a SMILES is read from it. * marks the point of attachment. dLys(Nε-C(NCN)NHBu) = CCCCNC(=NC#N)NCCCC[C@@H](N)C(=O)O; X13 = N#CN=C(NCCCC[C@@H](N[*:1])C(=O)[*:2])NCc1ccccn1; X31 = N#CN=C(NCCC[C@H](N[*:1])C(=O)[*:2])NCc1ccccn1; X8 = CCCCNC(=NC(N)=O)NCCCC[C@H](N[*:1])C(=O)[*:2]; Triazol3yl(1,2,4-5-NH2) = Nc1nc(*)n[nH]1; dPhe(4-Cl) = N[C@H](Cc1ccc(Cl)cc1)C(=O)O; d2Nal = N[C@H](Cc1ccc2ccccc2c1)C(=O)O; Lys(iPr) = CC(C)NCCCC[C@H](N)C(=O)O; d3Pal = N[C@H](Cc1cccnc1)C(=O)O; Nicotinoyl = O=C(c1cccnc1)*; dOrn = NCCC[C@@H](N)C(=O)O; Orn = NCCC[C@H](N)C(=O)O
System: mature female Sprague-Dawley rats
Test: in vivo testing of effectiveness to prevent ovulation in female rats
Set-up: species or system rat
Details: injected about noon on day of proestrus, rats ovulating/rats treated

| Structure (SMILES) | Rats Ovulating (Dosage 2.5 micrograms) | Rats Ovulating (Dosage 5.0 micrograms) | Rats Ovulating (Dosage 1.0 micrograms) | also measured |
| --- | --- | --- | --- | --- |
| CC(=O)N[C@H](Cc1ccc2ccccc2c1)C(=O)N[C@H](Cc1ccc(Cl)cc1)C(=O)N[C@H](Cc1cccnc1)C(=O)N[C@@H](CO)C(=O)N[C@@H](CCCNc1nc(N)n[nH]1)C(=O)N[C@H](CCCNc1nc(N)n[nH]1)C(=O)N[C@@H](CC(C)C)C(=O)N[C@@H](CCCCNC(C)C)C(=O)N1CCC[C@H]1C(=O)N[C@H](C)C(N)=O [Peptide 103] (Ac-[d2Nal][dPhe(4-Cl)][d3Pal]S[Orn](Triazol3yl(1,2,4-5-NH2))[dOrn](Triazol3yl(1,2,4-5-NH2))L[Lys(iPr)]P[dA]-NH2) | 5/7 |  |  |  |
| CC(=O)N[C@H](Cc1ccc2ccccc2c1)C(=O)N[C@H](Cc1ccc(Cl)cc1)C(=O)N[C@H](Cc1cccnc1)C(=O)N[C@@H](CO)C(=O)N[C@@H](CCCCNC(=O)c1cccnc1)C(=O)N[C@H](CCCCNC(=O)c1cccnc1)C(=O)N[C@@H](CC(C)C)C(=O)N[C@@H](CCCCNc1nc(N)n[nH]1)C(=O)N1CCC[C@H]1C(=O)N[C@H](C)C(N)=O [Peptide 105A] (Ac-[d2Nal][dPhe(4-Cl)][d3Pal]SK(Nicotinoyl)[dK](Nicotinoyl)LK(Triazol3yl(1,2,4-5-NH2))P[dA]-NH2) |  | 4/6 |  |  |
| CC(=O)N[C@H](Cc1ccc2ccccc2c1)C(=O)N[C@H](Cc1ccc(Cl)cc1)C(=O)N[C@H](Cc1cccnc1)C(=O)N[C@@H](CO)C(=O)N[C@@H](CCCNC(=NC#N)NCc1ccccn1)C(=O)N[C@H](Cc1ccc2ccccc2c1)C(=O)N[C@@H](CC(C)C)C(=O)N[C@@H](CCCCNC(C)C)C(=O)N1CCC[C@H]1C(=O)N[C@H](C)C(N)=O [Peptide 105] (Ac-[d2Nal][dPhe(4-Cl)][d3Pal]S[X31][d2Nal]L[Lys(iPr)]P[dA]-NH2) | 0/5 |  |  |  |
| CC(=O)N[C@H](Cc1ccc2ccccc2c1)C(=O)N[C@H](Cc1ccc(Cl)cc1)C(=O)N[C@H](Cc1cccnc1)C(=O)N[C@@H](CO)C(=O)N[C@@H](CCCCNc1nc(N)n[nH]1)C(=O)N[C@H](CCCCNC(=O)c1cccnc1)C(=O)N[C@@H](CC(C)C)C(=O)N[C@@H](CCCCNC(C)C)C(=O)N1CCC[C@H]1C(=O)N[C@H](C)C(N)=O [Peptide 106A] (Ac-[d2Nal][dPhe(4-Cl)][d3Pal]SK(Triazol3yl(1,2,4-5-NH2))[dK](Nicotinoyl)L[Lys(iPr)]P[dA]-NH2) |  |  | 7/7 | Rats Ovulating (Dosage 2.0 micrograms): 0/5 |
| CC(=O)N[C@H](Cc1ccc2ccccc2c1)C(=O)N[C@H](Cc1ccc(Cl)cc1)C(=O)N[C@H](Cc1cccnc1)C(=O)N[C@@H](CO)C(=O)N[C@@H](CCCCNC(=O)c1cccnc1)C(=O)N[C@H](CCCCNc1nc(N)n[nH]1)C(=O)N[C@@H](CC(C)C)C(=O)N[C@@H](CCCCNC(C)C)C(=O)N1CCC[C@H]1C(=O)N[C@H](C)C(N)=O [Peptide 106B] (Ac-[d2Nal][dPhe(4-Cl)][d3Pal]SK(Nicotinoyl)[dK](Triazol3yl(1,2,4-5-NH2))L[Lys(iPr)]P[dA]-NH2) | 0/6 |  | 4/6 |  |
| CCCCNC(=NC(N)=O)NCCCC[C@H](NC(=O)[C@H](CC(C)C)NC(=O)[C@@H](CCCCNc1nc(N)n[nH]1)NC(=O)[C@H](CCCCNC(=O)c1cccnc1)NC(=O)[C@H](CO)NC(=O)[C@@H](Cc1cccnc1)NC(=O)[C@@H](Cc1ccc(Cl)cc1)NC(=O)[C@@H](Cc1ccc2ccccc2c1)NC(C)=O)C(=O)N1CCC[C@H]1C(=O)N[C@H](C)C(N)=O [Peptide 106] (Ac-[d2Nal][dPhe(4-Cl)][d3Pal]SK(Nicotinoyl)[dK](Triazol3yl(1,2,4-5-NH2))L[X8]P[dA]-NH2) |  | 0/7 |  |  |
| CCCCNC(=NC#N)NCCCC[C@@H](NC(=O)[C@@H](Cc1ccc(Cl)cc1)NC(=O)[C@@H](Cc1ccc2ccccc2c1)NC(C)=O)C(=O)N[C@@H](CO)C(=O)N[C@@H](Cc1ccc(O)cc1)C(=O)N[C@H](CCCNC(=N)N)C(=O)N[C@@H](CC(C)C)C(=O)N[C@@H](CCCNC(=N)N)C(=O)N1CCC[C@H]1C(=O)N[C@H](C)C(N)=O [Peptide 111] (Ac-[d2Nal][dPhe(4-Cl)][dLys(Nε-C(NCN)NHBu)]SY[dR]LRP[dA]-NH2) |  |  | 0/5 | Rats Ovulating (Dosage 0.5 micrograms): 5/7 |
| CC(=O)N[C@H](Cc1ccc2ccccc2c1)C(=O)N[C@H](Cc1ccc(Cl)cc1)C(=O)N[C@H](CCCCNC(=NC#N)NCc1ccccn1)C(=O)N[C@@H](CO)C(=O)N[C@@H](Cc1ccc(O)cc1)C(=O)N[C@H](CCCNC(=N)N)C(=O)N[C@@H](CC(C)C)C(=O)N[C@@H](CCCNC(=N)N)C(=O)N1CCC[C@H]1C(=O)N[C@H](C)C(N)=O [Peptide 112] (Ac-[d2Nal][dPhe(4-Cl)][X13]SY[dR]LRP[dA]-NH2) |  |  | 4/8 |  |
| CC(=O)N[C@H](Cc1ccc2ccccc2c1)C(=O)N[C@H](Cc1ccc(Cl)cc1)C(=O)N[C@H](CCCCNc1nc(N)n[nH]1)C(=O)N[C@@H](CO)C(=O)N[C@@H](Cc1ccc(O)cc1)C(=O)N[C@H](CCCCNc1nc(N)n[nH]1)C(=O)N[C@@H](CC(C)C)C(=O)N[C@@H](CCCCNC(C)C)C(=O)N1CCC[C@H]1C(=O)N[C@H](C)C(N)=O [Peptide 113A] (Ac-[d2Nal][dPhe(4-Cl)][dK](Triazol3yl(1,2,4-5-NH2))SY[dK](Triazol3yl(1,2,4-5-NH2))L[Lys(iPr)]P[dA]-NH2) |  | 0/6 |  |  |
| CC(=O)N[C@H](Cc1ccc2ccccc2c1)C(=O)N[C@H](Cc1ccc(Cl)cc1)C(=O)N[C@H](CCCCNc1nc(N)n[nH]1)C(=O)N[C@@H](CO)C(=O)N[C@@H](Cc1ccc(O)cc1)C(=O)N[C@H](CCCNC(=N)N)C(=O)N[C@@H](CC(C)C)C(=O)N[C@@H](CCCNC(=N)N)C(=O)N1CCC[C@H]1C(=O)N[C@H](C)C(N)=O [Peptide 113] (Ac-[d2Nal][dPhe(4-Cl)][dK](Triazol3yl(1,2,4-5-NH2))SY[dR]LRP[dA]-NH2) |  |  | 5/6 |  |
| CC(=O)N[C@H](Cc1ccc2ccccc2c1)C(=O)N[C@H](Cc1ccc(Cl)cc1)C(=O)N[C@H](CCCCNc1nc(N)n[nH]1)C(=O)N[C@@H](CO)C(=O)N[C@@H](CCCNC(=N)N)C(=O)N[C@H](Cc1ccc2ccccc2c1)C(=O)N[C@@H](CC(C)C)C(=O)N[C@@H](CCCNC(=N)N)C(=O)N1CCC[C@H]1C(=O)N[C@H](C)C(N)=O [Peptide 115] (Ac-[d2Nal][dPhe(4-Cl)][dK](Triazol3yl(1,2,4-5-NH2))SR[d2Nal]LRP[dA]-NH2) | 2/8 |  |  |  |
| CCCCNC(=NC#N)NCCCC[C@@H](NC(=O)[C@@H](Cc1ccc(Cl)cc1)NC(=O)[C@@H](Cc1ccc2ccccc2c1)NC(C)=O)C(=O)N[C@@H](CO)C(=O)N[C@@H](Cc1ccc(O)cc1)C(=O)N[C@H](CCCNC(=N)N)C(=O)N[C@@H](CC(C)C)C(=O)N[C@@H](CCCCNC(C)C)C(=O)N1CCC[C@H]1C(=O)N[C@H](C)C(N)=O [Peptide 116] (Ac-[d2Nal][dPhe(4-Cl)][dLys(Nε-C(NCN)NHBu)]SY[dR]L[Lys(iPr)]P[dA]-NH2) | 0/6 |  | 2/8 |  |
| CC(=O)N[C@H](Cc1ccc2ccccc2c1)C(=O)N[C@H](Cc1ccc(Cl)cc1)C(=O)N[C@H](CCCCNc1nc(N)n[nH]1)C(=O)N[C@@H](CO)C(=O)N[C@@H](Cc1ccc(O)cc1)C(=O)N[C@H](Cc1cccnc1)C(=O)N[C@@H](CC(C)C)C(=O)N[C@@H](CCCNC(=N)N)C(=O)N1CCC[C@H]1C(=O)N[C@H](C)C(N)=O [Peptide 117A] (Ac-[d2Nal][dPhe(4-Cl)][dK](Triazol3yl(1,2,4-5-NH2))SY[d3Pal]LRP[dA]-NH2) | 0/7 |  | 4/9 |  |
| CC(=O)N[C@H](Cc1ccc2ccccc2c1)C(=O)N[C@H](Cc1ccc(Cl)cc1)C(=O)N[C@H](CCCCNc1nc(N)n[nH]1)C(=O)N[C@@H](CO)C(=O)N[C@@H](Cc1ccc(O)cc1)C(=O)N[C@H](Cc1cccnc1)C(=O)N[C@@H](CC(C)C)C(=O)N[C@@H](CCCCNC(C)C)C(=O)N1CCC[C@H]1C(=O)N[C@H](C)C(N)=O [Peptide 117B] (Ac-[d2Nal][dPhe(4-Cl)][dK](Triazol3yl(1,2,4-5-NH2))SY[d3Pal]L[Lys(iPr)]P[dA]-NH2) |  |  |  | Rats Ovulating (Dosage 15 micrograms): 1/5 |
| CC(=O)N[C@H](Cc1ccc2ccccc2c1)C(=O)N[C@H](Cc1ccc(Cl)cc1)C(=O)N[C@H](CCCCNc1nc(N)n[nH]1)C(=O)N[C@@H](CO)C(=O)N[C@@H](Cc1ccc(O)cc1)C(=O)N[C@H](CCCNC(=N)N)C(=O)N[C@@H](CC(C)C)C(=O)N[C@@H](CCCCNC(C)C)C(=O)N1CCC[C@H]1C(=O)N[C@H](C)C(N)=O [Peptide 117] (Ac-[d2Nal][dPhe(4-Cl)][dK](Triazol3yl(1,2,4-5-NH2))SY[dR]L[Lys(iPr)]P[dA]-NH2) |  | 2/5 |  | Rats Ovulating (Dosage 10 micrograms): 0/6 |
| CC(=O)N[C@H](Cc1ccc2ccccc2c1)C(=O)N[C@H](Cc1ccc(Cl)cc1)C(=O)N[C@H](CCCCNC(=NC#N)NCc1ccccn1)C(=O)N[C@@H](CO)C(=O)N[C@@H](CCCNC(=N)N)C(=O)N[C@H](Cc1ccc2ccccc2c1)C(=O)N[C@@H](CC(C)C)C(=O)N[C@@H](CCCNC(=N)N)C(=O)N1CCC[C@H]1C(=O)N[C@H](C)C(N)=O [Peptide 120A] (Ac-[d2Nal][dPhe(4-Cl)][X13]SR[d2Nal]LRP[dA]-NH2) |  | 4/6 |  |  |
| CC(=O)N[C@H](Cc1ccc2ccccc2c1)C(=O)N[C@H](Cc1ccc(Cl)cc1)C(=O)N[C@H](CCCCNC(=NC#N)NCc1ccccn1)C(=O)N[C@@H](CO)C(=O)N[C@@H](Cc1ccc(O)cc1)C(=O)N[C@H](Cc1cccnc1)C(=O)N[C@@H](CC(C)C)C(=O)N[C@@H](CCCCNC(C)C)C(=O)N1CCC[C@H]1C(=O)N[C@H](C)C(N)=O [Peptide 120] (Ac-[d2Nal][dPhe(4-Cl)][X13]SY[d3Pal]L[Lys(iPr)]P[dA]-NH2) | 0/8 |  | 6/7 |  |
| CCCCNC(=NC#N)NCCCC[C@@H](NC(=O)[C@H](Cc1ccc(O)cc1)NC(=O)[C@H](CO)NC(=O)[C@@H](CCCCNC(=NC#N)NCCCC)NC(=O)[C@@H](Cc1ccc(Cl)cc1)NC(=O)[C@@H](Cc1ccc2ccccc2c1)NC(C)=O)C(=O)N[C@@H](CC(C)C)C(=O)N[C@@H](CCCCNC(C)C)C(=O)N1CCC[C@H]1C(=O)N[C@H](C)C(N)=O [Peptide 122A] (Ac-[d2Nal][dPhe(4-Cl)][dLys(Nε-C(NCN)NHBu)]SY[dLys(Nε-C(NCN)NHBu)]L[Lys(iPr)]P[dA]-NH2) | 5/6 | 0/6 |  |  |
